Experimental findings from the supplement of paper PMC3334620 are described below.

In all, about 33,000 sequences were measured (“E-score (-0.5 to 0.5)”: median about -0.043, highest 2% from about 0.37 on). This is one part of the list.

The assay concerns the target T1, Upc2 (UniProt Q12151).
T1 sequence: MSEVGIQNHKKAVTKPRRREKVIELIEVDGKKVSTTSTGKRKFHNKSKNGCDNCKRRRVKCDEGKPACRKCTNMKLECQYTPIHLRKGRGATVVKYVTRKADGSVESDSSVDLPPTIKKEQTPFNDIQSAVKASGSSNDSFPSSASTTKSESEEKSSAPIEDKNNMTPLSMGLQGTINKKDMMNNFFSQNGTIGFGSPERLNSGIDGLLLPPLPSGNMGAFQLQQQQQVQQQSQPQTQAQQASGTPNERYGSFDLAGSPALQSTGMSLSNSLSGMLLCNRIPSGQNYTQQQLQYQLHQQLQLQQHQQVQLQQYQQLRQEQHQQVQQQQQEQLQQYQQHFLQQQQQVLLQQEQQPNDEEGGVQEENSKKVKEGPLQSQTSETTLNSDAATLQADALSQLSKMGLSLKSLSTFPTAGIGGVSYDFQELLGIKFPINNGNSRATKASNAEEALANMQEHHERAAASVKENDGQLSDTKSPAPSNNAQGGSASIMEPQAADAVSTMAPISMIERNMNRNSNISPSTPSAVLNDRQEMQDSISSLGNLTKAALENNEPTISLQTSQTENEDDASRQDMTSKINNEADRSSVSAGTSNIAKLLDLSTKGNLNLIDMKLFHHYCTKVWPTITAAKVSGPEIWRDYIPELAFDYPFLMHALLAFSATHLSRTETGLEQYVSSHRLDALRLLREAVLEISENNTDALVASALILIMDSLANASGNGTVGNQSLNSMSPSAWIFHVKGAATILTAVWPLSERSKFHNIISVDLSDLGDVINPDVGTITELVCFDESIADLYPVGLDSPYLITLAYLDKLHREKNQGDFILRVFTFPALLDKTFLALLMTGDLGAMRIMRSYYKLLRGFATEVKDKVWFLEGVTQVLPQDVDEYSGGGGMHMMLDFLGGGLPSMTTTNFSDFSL
The experiment in a line: PBM E-score (8-mer binding enrichment) (E-score (-0.5 to 0.5)); higher = stronger / more preferred TF binding; most listed sequences are background and not binding sites. Conditions: protein concentration: 200 nM; construct: GST-full length. As for the experimental part: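 Universal 'all 10-mer' protein binding microarrays (Agilent AMADID 015681) probed with GST-tagged S. cerevisiae TFs (full-length or DBD) made by in vitro transcription/translation (PURExpress), about 100-200 nM. Bound TF was detected with fluorescent anti-GST. Each ungapped 8-mer (which stands for itself and its reverse complement) is scored by the PBM enrichment score (E-score), a modified Wilcoxon-Mann-Whitney statistic from -0.5 to +0.5, computed with the Universal PBM Analysis Suite. Scale: above 0.35 generally sequence-specific binding.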
With CGACGGCG, the “PBM E-score” value is 0.0964. For AATGCCTA, the “PBM E-score” value is -0.193. For the sequence CACTCCAG, the “PBM E-score” value was determined as 0.0251. Regarding ACAGCAGC, the “PBM E-score” value is -0.0513.

For the sequence CAGCTGAG, the “PBM E-score” value is -0.107. Turning to CTATACCA, the “PBM E-score” value came to 0.0479. Regarding CGAGTCAG, the “PBM E-score” value was 0.00299. On to GGACGTAC, for which the “PBM E-score” value is 0.138.

On to AGTAGTAT, for which the “PBM E-score” value is 0.0343. As for AACTTGAT, the figure is -0.00698; as for ACCCGGTA, 0.177. As for TGCTTGAA, the “PBM E-score” value came out at 0.127. The same measure for GAACGCCA: -0.107. Turning to GAGGTTCC, the “PBM E-score” value was determined as 0.00524.

On to CCTCTTGC, for which the “PBM E-score” value is -0.145. CTGAGGTC: the “PBM E-score” value was -0.141. For CAAGTGAC, the “PBM E-score” value was -0.18. The same measure for CTGGGTTA: -0.177. For ACTGACTC, the “PBM E-score” value was -0.192.

As to GATCCATA, the “PBM E-score” value worked out at 0.0498. As for ATAAGAAT, the “PBM E-score” value is 0.17. Regarding ATACGACA, the “PBM E-score” value stood at 0.477. Consider ACATTACA, for which the “PBM E-score” value is -0.0288. Consider ACCAGTAA, for which the “PBM E-score” value is -0.0629. With AAAGGCCA, the “PBM E-score” value is -0.0724.

Turning to AGCAACGC, the “PBM E-score” value turned out to be 0.0264. CATAGAGC: the “PBM E-score” value was -0.274. Take AATGCACC: the “PBM E-score” value is -0.231. With CTGGAAGC, the “PBM E-score” value was -0.236. On to AAAGCTAT, for which the “PBM E-score” value was 0.0307.

For AATTAACC, the “PBM E-score” value is -0.00385. Turning to CTCCCCCA, the “PBM E-score” value is -0.201.

As for CCAGGGGC, the “PBM E-score” value was -0.289. Regarding CTCACCTC, the “PBM E-score” value is -0.00475. With GATGACAA, the “PBM E-score” value was -0.131. As for AGGCGCTC, the “PBM E-score” value came out at 0.00445. The same measure for GGCCTCAC: -0.0945; for AAACTGTG: -0.161; for ATCTGCTG: -0.0845.

For the sequence ATATGCGA, the “PBM E-score” value came out at 0.322.

Take GCGAACAC: the “PBM E-score” value was -0.00104. Regarding TAACTCAA, the “PBM E-score” value was -0.0155. Turning to CCTTGCAG, the “PBM E-score” value was -0.237.

On to CCACATTA, for which the “PBM E-score” value worked out at 0.00599. Regarding ACGGAGGA, the “PBM E-score” value worked out at 0.0751. As to CGCGAGTA, the “PBM E-score” value is 0.214.

With AACGACGG, the “PBM E-score” value worked out at 0.437. CCTCGGGC: the “PBM E-score” value was 0.0115. The same measure for CATTGTGA: -0.191; for ACCAACAG: -0.175; for ACCCCGCC: 0.0661. For the sequence CCCGCCCA, the “PBM E-score” value worked out at 0.114. Turning to CAATCTGA, the “PBM E-score” value was -0.175. In the case of CAGCTCAC, the “PBM E-score” value was -0.149. As for CTTTGTCC, the figure is -0.0099.

On to ACTAGCCT, for which the “PBM E-score” value was -0.107. For ACCAGGAA, the “PBM E-score” value was -0.00714. ACACCCCT: the “PBM E-score” value is -0.273.

On to AACCTGGT, for which the “PBM E-score” value is -0.098. In the case of AGGGTGTG, the “PBM E-score” value was -0.193.

Regarding GAGTCGGC, the “PBM E-score” value was -0.176. On to CGTCAGAA, for which the “PBM E-score” value is -0.0731.

As for CTCTTTCA, the “PBM E-score” value is -0.0132. Regarding ACCTTCGT, the “PBM E-score” value came out at 0.306. On to AGTGGCGC, for which the “PBM E-score” value is -0.0672.

Take GCGTACCA: the “PBM E-score” value was 0.215. Regarding GGCAGACC, the “PBM E-score” value is -0.25. Regarding ACGTTAGT, the “PBM E-score” value came out at 0.05. In the case of CCCCTTCA, the “PBM E-score” value is -0.262. Regarding TCAGCACA, the “PBM E-score” value was found to be 0.0649. As for ACGGATGA, the figure is 0.181; as for ATCCAGAT, -0.0306; as for GTTCGGAA, 0.124. With GGCTAGGA, the “PBM E-score” value was -0.251. As for AATCCGCC, the “PBM E-score” value was -0.097. The same measure for AAATGCTT: -0.175; for CCGATCGG: 0.0835; for CTCCATGC: -0.313.

Take CACAACTG: the “PBM E-score” value was -0.0369. As to GGCAGCAC, the “PBM E-score” value is -0.11.

Regarding CTTGGAAC, the “PBM E-score” value turned out to be 0.0624. CAGATCCG: the “PBM E-score” value is -0.065. AAATAGCC: the “PBM E-score” value was -0.166. With GTTCTGAA, the “PBM E-score” value was 0.0378. Take CGGAGCGC: the “PBM E-score” value is -0.0741. For TAGGCTCA, the “PBM E-score” value was -0.279.

As for CAGCACCA, the “PBM E-score” value was -0.427. As to GGTCCGGA, the “PBM E-score” value is 0.1. As to CGATGTTC, the “PBM E-score” value is -0.023.

CTATACAA: the “PBM E-score” value came out at 0.0496. On to TAATAATA, for which the “PBM E-score” value was determined as 0.182. On to GCGGCGCA, for which the “PBM E-score” value is -0.186. For the sequence ATTGGTGC, the “PBM E-score” value was -0.0649. For the sequence GAACAAGA, the “PBM E-score” value was determined as 0.014.

In the case of ATCGTTTC, the “PBM E-score” value was 0.401. Regarding GCAAAGCC, the “PBM E-score” value is -0.0867.

AAAACTAG: the “PBM E-score” value turned out to be 0.00719. As for CCAGAACA, the “PBM E-score” value turned out to be 0.0605. Consider CGGTCTAA, for which the “PBM E-score” value is 0.00368.

Turning to CGGGCGTA, the “PBM E-score” value is 0.138. As for TCTTGACA, the figure is -0.0889. Turning to ACTAAGTG, the “PBM E-score” value was -0.0479.

Consider GAGGAGCA, for which the “PBM E-score” value came to 0.0188. Take GAAGTATA: the “PBM E-score” value was found to be 0.149. Regarding GAGCATGA, the “PBM E-score” value was -0.036. Take CCTGCACC: the “PBM E-score” value was -0.24. For the sequence CATTATCC, the “PBM E-score” value stood at 0.116.

In the case of CACGGTAC, the “PBM E-score” value was -0.0237.

As to GCGTTCTA, the “PBM E-score” value was determined as 0.0855. As to AAAGATGG, the “PBM E-score” value is -0.225.
